Literature values in US20050026866A1 (priority 2002, published 2005).

Tests used:
[1] = tested on: Ehrlich ascites tumors; conditions: daily intraperitoneal injection of lactulose; cited from earlier work
[2] = tested on: tetracycline-sensitive promoter; conditions: mouse, in vivo, iv; cited from earlier work

SMILES | increase in growth and survival of the bacteria within the tumor compared to a saline control [1] | intratumoral luciferase activity [2]
OC[C@H]1O[C@@H](O[C@@H]2[C@@H](CO)OC(O)(CO)[C@H]2O)[C@H](O)[C@@H](O)[C@H]1O (mixture of isomers) [lactulose] | 1000 fold | –
Cc1c2c(c(O)c3c(O)cccc13)C(=O)[C@]1(O)C(=O)C(C(N)=O)=C(O)[C@@H](N(C)C)[C@@H]1C2 [anhydrotetracycline] | – | induced
